# Source: PMC4336329 (PLoS ONE, 2015)
# The campaign covered roughly 310,000 compounds. About 2,200 (0.71%) showed an effect of 50% or more. The effect is printed as a negative number. Some of the results follow.
# Target: human ether-à-go-go-related gene (hERG) potassium channel (human, UniProt Q12809)
# Assay: primary screen, population patch clamp on CHO cells stably expressing hERG
# Chain of human ether-à-go-go-related gene (hERG) potassium channel (Q12809 whole entry, looked up): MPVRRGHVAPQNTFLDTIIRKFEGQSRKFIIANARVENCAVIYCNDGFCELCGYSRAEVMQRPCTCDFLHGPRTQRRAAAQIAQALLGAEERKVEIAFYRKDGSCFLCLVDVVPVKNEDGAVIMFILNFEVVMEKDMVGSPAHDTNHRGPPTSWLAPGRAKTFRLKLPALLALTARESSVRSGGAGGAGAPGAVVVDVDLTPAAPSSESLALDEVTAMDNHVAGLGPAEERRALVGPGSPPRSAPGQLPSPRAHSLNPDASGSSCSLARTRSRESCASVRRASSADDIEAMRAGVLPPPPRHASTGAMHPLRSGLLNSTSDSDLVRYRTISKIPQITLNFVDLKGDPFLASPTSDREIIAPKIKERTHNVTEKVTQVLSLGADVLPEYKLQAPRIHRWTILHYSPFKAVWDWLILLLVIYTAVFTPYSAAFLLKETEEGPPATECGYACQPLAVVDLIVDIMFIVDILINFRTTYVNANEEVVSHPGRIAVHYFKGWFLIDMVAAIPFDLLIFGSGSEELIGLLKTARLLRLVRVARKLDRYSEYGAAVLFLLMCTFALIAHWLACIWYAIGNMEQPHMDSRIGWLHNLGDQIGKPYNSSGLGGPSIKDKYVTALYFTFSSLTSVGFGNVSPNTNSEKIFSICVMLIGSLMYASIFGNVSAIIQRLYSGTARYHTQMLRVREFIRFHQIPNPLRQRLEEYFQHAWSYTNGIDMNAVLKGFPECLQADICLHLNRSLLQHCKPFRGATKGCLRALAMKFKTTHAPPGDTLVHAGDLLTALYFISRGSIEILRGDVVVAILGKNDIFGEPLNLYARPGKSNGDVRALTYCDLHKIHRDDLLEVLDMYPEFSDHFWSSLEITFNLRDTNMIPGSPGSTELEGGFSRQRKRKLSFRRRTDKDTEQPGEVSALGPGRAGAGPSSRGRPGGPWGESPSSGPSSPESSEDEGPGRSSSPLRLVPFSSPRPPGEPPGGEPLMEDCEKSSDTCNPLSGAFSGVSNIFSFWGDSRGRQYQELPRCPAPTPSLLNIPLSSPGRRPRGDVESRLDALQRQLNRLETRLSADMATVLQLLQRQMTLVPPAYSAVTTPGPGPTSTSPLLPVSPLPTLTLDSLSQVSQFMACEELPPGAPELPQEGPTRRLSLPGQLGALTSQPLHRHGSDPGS
row,SMILES,"hERG current change (%, negative = inhibition) at 1uM [%]"
1,CCCCn1c(N(CCOC(C)=O)C(C)=O)nc2ccccc21,-1.24
2,Cc1cc(O)c(C(=O)/C=C/c2cccc([N+](=O)[O-])c2)c(=O)o1,10.7
3,COc1ccccc1NC(=O)Nc1nnc(Cc2ccc(F)cc2)s1,14.8
4,COc1ccc(CCNC(=O)CCNS(=O)(=O)c2cccc(Cl)c2)cc1OC,8.06
5,Cc1ccc(-n2c(Cc3noc4ccccc34)n[nH]c2=S)cc1,12.2
6,CCNc1ccc(C(=O)OCC(=O)NC(=O)NCC(C)C)cc1[N+](=O)[O-],11.2
7,CO[C@@H]1[C@@H](O[C@@H]2O[C@H](C)[C@@H](O[C@H]3C[C@@](C)(OC(=O)CC(C)C)[C@@H](O)[C@H](C)O3)[C@H](N(C)C)[C@H]2O)[C@@H](CC=O)C[C@@H](C)[C@@H](O)C=CC=CC[C@@H](C)OC(=O)C[C@H]1OC(C)=O,-3.23
8,Cc1ccc(/C(O)=C2/C(=O)C(=O)N(c3ccccn3)C2c2ccc(F)cc2)cc1 (stereo not shown),9.9
9,CCCCOC(=O)c1ccc(NC(=O)c2ccc(F)cc2F)cc1,12.6
10,CCCNC(=O)N1CCN(c2nc(C(C)C)c3c(c2C#N)CC(C)(C)OC3)CC1,8.3
11,CC(=O)N1CCc2cc(S(=O)(=O)NCCCN3CCN(Cc4ccccc4)CC3)ccc21,-0.451
12,CN(C)c1nc(OCCNC(=O)Nc2ccccc2)nc(N2CCCCC2)n1,10.8
13,Cn1c(=NC(=O)c2cnccn2)sc2ccccc21,10.5
14,CCOC(=O)c1c(NC(=O)CSc2nccc(=O)[nH]2)sc(C)c1C,14.6
15,S=C(NCCN1CCOCC1)Nc1cccc2ccccc12,14.8
16,Cc1cccc(NC(=O)N2CCC(NC(=O)c3ccccc3C)CC2)c1,8.64
17,OC1CN=C2CCCc3c2n(c2ccc(Cl)cc32)C1 (stereo not shown),-35.6
18,c1ccc(N2CCN(C3CCSC3)CC2)cc1 (stereo not shown),3.25
19,CCOc1ncccc1C(=O)OCC(=O)NCCc1ccccc1,12.7
20,COc1cccc(CN2CCN(Cc3nc(-c4cccs4)oc3C)CC2CCO)c1 (stereo not shown),-12.3
21,CCN1CCCC1CNC(=O)Cn1nc(C)n2nc(-c3ccccc3)cc2c1=O (stereo not shown),-3.14
22,Cc1[nH]c(C)c(S(=O)(=O)NCc2ccc(F)cc2)c1C(=O)N1CCCC1,8.76

row,SMILES,"hERG current change (%, negative = inhibition) at 1uM [%]"
1,Cc1cc(C)n(C(=O)CNC(=O)c2ccccc2Br)n1,17.6
2,CSc1cccc(NC(=O)c2cnccn2)c1,7.12
3,Cc1ccc(S(=O)(=O)NC(=O)Nc2ccc(F)c(F)c2)cc1,11.6
4,COCCCNC(=O)C(=O)C1C(=O)Nc2ccccc21 (stereo not shown),11.8
5,O=C(Nc1cc(S(=O)(=O)N2CCCCC2)ccc1Cl)c1ccc(F)cc1,-0.241
6,COc1ccc(OCCNC(=O)C(c2ccccc2)c2ccccc2)cc1,-1.28
7,COc1ccc(CN2CCCCC2C)cc1C (stereo not shown),-4.24
8,Cc1c(-c2cccc(Cl)c2)nc2ccccc2c1C(=O)N1CCC2(CC1)OCCO2,-7.58
9,CC(C)CC(=O)N=C1SC2CS(=O)(=O)CC2N1CCc1ccccc1 (stereo not shown),2.54
10,O=C(CCN1CCOCC1)Nc1ccccc1,14.8
11,COC(=O)C1=C(C(=O)OC)[C@@H]2N(C)c3ccccc3[C@@]23C[C@@H](C(=O)OC)N(C(=O)C2CCC2)C3=N1,3.59
12,CCCn1c(=O)c2c(C(F)(F)F)cc(-c3cccs3)nc2n(CCC)c1=O,7.57
13,CCOC(=O)N1CCN(Cc2nc3c(c(=O)[nH]c(=O)n3C)n2CCCc2ccccc2)CC1,-15
14,COn1c(SCc2cccnc2)nc2ccccc2c1=O,1.02
15,CC(=O)N1CCc2cc(N=NC3=C(O)CCCC3=O)ccc21,9.8
16,CCCc1nnc(NC(=O)CN2CCOCC2)s1.Cl,10.8
17,CC(=O)NCCN=Cc1sc2ccccc2c1O,8.06
18,Cc1cc(=O)oc2cc(OCC#N)ccc12,11.6
19,Cc1cc(C(=O)CCC(=O)N2CCN(c3ccccc3F)CC2)c(C)s1,5.31
20,Cc1ncc([N+](=O)[O-])n1Cc1ccc(Br)cc1,9.01
21,O=S(=O)(F)c1ccc2nc(-c3cccc(Sc4ccccc4)c3)cc(Cl)c2c1,13.3
